{
  "source": "patent US6987093B2",
  "about": "(priority 2001, dated 2006)",
  "test_system": "H. influenzae",
  "assay": "Study 95-001 otitis media caused by H. influenzae",
  "format": "in vivo, human",
  "details": "single dose (30 mg/kg) regimen; 8 patients; follow-up",
  "protocol": "Specimens for culture and susceptibility testing were obtained from the infected ear by tympanocentesis within 24 h of start of therapy. […] However, the study was evaluated using the breakpoints in the most recent set of guidelines.\nTo be a bacteriological cure, the MITT subject had to have a positive culture from the middle ear for S. pneumoniae, H influenzae, or M. catarrhalis. Eradication was defined as presumed eradication of pretreatment pathogen(s) based on signs/symptoms or unavailability of culturable material. All evaluable patients had only one of the bacterial species present at baseline. There was no bacteriological response data collected for 95–001. However, the clinical outcome by bacterial pathogen at follow-up (approximately 28 days after first visit) was collected. For patients with S. pneumoniae as the baseline pathogen, all treatment arms yielded 100% clinical cure when the investigators' evaluations that were missing are not included in the analysis. […] The comparator drug, ceftriaxone, had no failures out of 9 patients.",
  "data": [
    {"smiles": "CC[C@H]1OC(=O)[C@H](C)[C@@H](O[C@H]2C[C@@](C)(OC)[C@@H](O)[C@H](C)O2)[C@H](C)[C@@H](O[C@@H]2O[C@H](C)C[C@H](N(C)C)[C@H]2O)[C@](C)(O)C[C@@H](C)CN(C)[C@H](C)[C@@H](O)[C@]1(C)O", "note": "[Azithromycin, 9a-aza-9a-methyl-9-deoxo-9a-homoerythromycin A]", "values": [
      {"measurement": "failures", "result": 1}
    ]}
  ]
}
